According to PMC4336329 (PLoS ONE, 2015):
Hit rate of the full screen: of about 310,000 compounds, about 14,000 (4.5%) showed an effect of 50% or more. The effect is printed as a negative number. Some of the results follow.

target: human ether-à-go-go-related gene (hERG) potassium channel (human, UniProt Q12809); test: primary screen, population patch clamp on CHO cells stably expressing hERG
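Further: peak tail current of the secondary pulse compared with the same well before compound.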

human ether-à-go-go-related gene (hERG) potassium channel, sequence (Q12809 whole entry, looked up): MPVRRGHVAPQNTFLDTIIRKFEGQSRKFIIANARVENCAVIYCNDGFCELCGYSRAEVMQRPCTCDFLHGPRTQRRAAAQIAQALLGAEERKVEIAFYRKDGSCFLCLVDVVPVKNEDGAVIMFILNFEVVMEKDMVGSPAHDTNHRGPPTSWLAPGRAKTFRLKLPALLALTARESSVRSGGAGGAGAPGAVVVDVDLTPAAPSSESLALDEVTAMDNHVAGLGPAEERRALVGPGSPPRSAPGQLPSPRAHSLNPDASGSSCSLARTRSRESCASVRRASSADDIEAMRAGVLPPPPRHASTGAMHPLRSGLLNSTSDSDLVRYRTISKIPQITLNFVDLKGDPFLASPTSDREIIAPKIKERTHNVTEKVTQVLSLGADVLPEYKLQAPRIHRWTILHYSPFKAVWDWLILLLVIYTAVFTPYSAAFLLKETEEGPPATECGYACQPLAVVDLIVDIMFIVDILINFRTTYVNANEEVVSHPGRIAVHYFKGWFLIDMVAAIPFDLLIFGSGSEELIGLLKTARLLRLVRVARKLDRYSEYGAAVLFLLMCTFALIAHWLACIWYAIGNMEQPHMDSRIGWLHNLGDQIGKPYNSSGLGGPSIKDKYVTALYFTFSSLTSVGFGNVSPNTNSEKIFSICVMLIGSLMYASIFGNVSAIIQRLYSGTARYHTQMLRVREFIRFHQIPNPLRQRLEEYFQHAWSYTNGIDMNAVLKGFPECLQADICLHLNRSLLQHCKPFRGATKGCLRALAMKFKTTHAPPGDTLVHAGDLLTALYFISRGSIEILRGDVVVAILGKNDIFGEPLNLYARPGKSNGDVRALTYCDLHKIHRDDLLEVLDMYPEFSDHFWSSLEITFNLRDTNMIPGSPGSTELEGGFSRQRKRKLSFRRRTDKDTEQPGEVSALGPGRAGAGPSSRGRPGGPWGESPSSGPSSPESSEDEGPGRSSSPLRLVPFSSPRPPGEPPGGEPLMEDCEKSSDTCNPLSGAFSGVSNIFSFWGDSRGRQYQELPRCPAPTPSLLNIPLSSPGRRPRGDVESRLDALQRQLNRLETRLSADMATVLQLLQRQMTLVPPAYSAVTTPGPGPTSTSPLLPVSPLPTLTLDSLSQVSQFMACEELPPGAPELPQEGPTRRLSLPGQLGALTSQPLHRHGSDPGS

Compound	hERG current change (%, negative = inhibition) at 10uM [%]
Cc1cc(C)nc(SC2CCCCC2NS(=O)(=O)c2ccc(Cl)cc2)n1 (stereo not drawn)	-14.7
O=C(Oc1ccc2c(-c3ccccc3)cc(=O)oc2c1)C1CCCCC1	9.18
CCCCCCC(=O)N/N=C/c1c(O)n(C(C)CC)c(=S)[nH]c1=O (stereo not drawn)	17.1
COc1cc(OC)cc(C(=O)NNC(=O)C2CSC3(C)CCC(=O)N23)c1 (stereo not drawn)	18.3
CC[C@H](C)[C@H](NC(=O)[C@H](Cc1ccc(O)cc1)NC(=O)[C@@H](N)C(C)C)C(=O)N[C@@H](Cc1cnc[nH]1)C(=O)N1CCC[C@H]1C(=O)N[C@@H](Cc1ccccc1)C(=O)O	4.75
Cc1noc(C)c1N=Nc1ccccc1C(=O)O	18.2
CN1CCN(C(c2cccc(Cl)c2)c2ccccc2Cl)CC1.O=C(O)/C=C\C(=O)O (stereo not drawn)	-73.1
Cc1ccc(C(C)(C)C)c(OCCOCCN2CCCC2)c1	-30.2
O=C(CSc1ccccc1C(=O)O)Nc1ccc2c(c1)OCO2	1.24
COC(=O)c1sc2nc(C)cc(-c3ccccc3)c2c1N	1.71
COc1ccc(C2=NOC(C3(S(=O)(=O)c4ccccc4)CC(O)C3)C2)cc1 (stereo not drawn)	-6.18
CC(C)C1C(c2ccccc2)N(C)C(c2ccccc2)CC1(O)c1ccccc1 (stereo not drawn)	-11.5
CS(=O)(=O)c1cccc(-c2nnc(NC(=O)c3ccc(S(=O)(=O)N4CCCC4)cc3)o2)c1	-15.7
COc1ccc(N=Nc2c(C)[nH]c3ccccc23)cc1	-0.358
COc1ccc(C(CCN2CCN(c3ccccc3)CC2)c2c(OC)cc(OC)c3c(-c4ccccc4)cc(=O)oc23)cc1 (stereo not drawn)	-9.55
COC(=O)c1c(NC(C)=O)csc1C	8.43
CC(C)(O)C#Cc1ccc(C(=O)N2CCCC(CNS(=O)(=O)c3cccs3)C2)o1 (stereo not drawn)	-1.94
CN(Cc1ccccc1)C(=O)CCC1CCN(S(=O)(=O)N(C)C)CC1	-18.4
COc1ccccc1-n1nnnc1SCC(=O)N1CCCC1=O	-11.1
COCCCNC(=O)c1cc(C)nc2ccc(F)cc12	-5.99
O=c1c2c(nc3c(-c4cccc5ccccc45)c[nH]n13)CCC2	0.888
CCc1cccc(C)c1NC(=O)c1ccc2nc(N3CCOCC3)sc2c1	3.13
O=S(=O)(NCCc1cn2ccccc2n1)c1cccs1	-10.5
O=C(O)C(=O)O.Oc1ccccc1N1CCN(CC(O)COC2CCCc3ccccc32)CC1 (stereo not drawn)	-43.2
Cc1c(Cl)cccc1NC(=S)NC(=O)c1cncc(Br)c1	17.6
CCCOc1ccc(-c2nc(SCc3ccccc3)[nH]c(=O)c2C#N)cc1OC	8.95
CCOC(=O)C1CCN(C(=O)COC(=O)CSc2ccc([N+](=O)[O-])cc2)CC1	-39.5

Compound	hERG current change (%, negative = inhibition) at 10uM [%]
OCCOCCNc1ncnc2sc(-c3ccccc3)cc12	-49.1
O=S(=O)(NCC1CN(S(=O)(=O)c2c(F)cccc2F)C1)c1ccc2c(c1)OCCO2	10.4
CC1=NN(c2ccccc2)C(=O)/C1=C/c1ccc(-c2ccc(C)c(C(=O)O)c2)o1	2.37
CCOc1ccc(OCC)c(NC(=O)c2ccc(CNc3c(N4CCCC4)c(=O)c3=O)cc2)c1	5.28
Cc1nnc(-c2cnn(C)c2N)n1Cc1ccc(Cl)cc1	4.95
FC(F)(F)c1cnc(N/N=C/c2ccncc2)c(Cl)c1	-12.2
CN(C)/C=C(\C#N)C(=O)Nc1ccc(F)c(Cl)c1	11.5
Cc1cc(NC(=O)c2noc3c2CCCCC3)nn1Cc1ccc(Cl)cc1	8.76
CCc1nn(C(C)C(=O)N2CCN(c3ccccc3)CC2)c(=O)c2cc3occc3n12 (stereo not drawn)	-25.3
CCCCOc1ccc(S(=O)(=O)Nc2cc(OC)ccc2OC)cc1	-2.48
O=C(OC1CCN(c2ncc(C(F)(F)F)cc2Cl)CC1)c1cccc(C(F)(F)F)c1	14.7
COc1ccc(Br)cc1CNC(=O)CCCc1cn(C)c2ccccc12	18.5
Cc1cccc(N2C(=O)CC(N3CCN(c4ccccc4)CC3)C2=O)c1 (stereo not drawn)	5.46
Cc1ccc(N=Nc2cc(C)ccc2N)cc1	2.3
CCC1C(=O)CC(c2ccc([N+](=O)[O-])cc2)NC1c1ccc([N+](=O)[O-])cc1 (stereo not drawn)	-76.3
CCN(CC(=O)NCc1ccc(F)cc1)C(=O)c1cc2ccccc2o1	-55.9
CS/C(=N\S(=O)(=O)c1cccs1)Nc1cccc(Cl)c1C	10.8
Cl.OC(COc1ccccc1)CN1CCC(Cc2ccccc2)CC1 (stereo not drawn)	-79.3
CCCS(=O)(=O)Nc1ccc(-c2cn3c(n2)SCC3)cc1	14
O=C(COC(=O)c1cncc(Br)c1)Nc1ccc(N2CCCCC2)cc1	-7.4
O=C(c1cccc(Br)c1)N1CCN(C2=NS(=O)(=O)c3ccccc32)CC1	-65.8
CCCCCCCNC(=O)C1(CC2CC(c3cccc(Br)c3)=NO2)CCN(C(=O)c2cc(OCC)c(OCC)c(OCC)c2)CC1 (stereo not drawn)	4.79
COc1ccc(/C=N/NC(=O)c2ccccc2NC(=O)c2ccco2)c(OC)c1	15.3
CC1C(=O)Nc2ccccc2N1C(=O)C1CC1 (stereo not drawn)	3.53
CCN(CC)CCN(C(=O)CCS(=O)(=O)c1ccccc1)c1nc2c(C)cc(C)cc2s1.Cl	3.11
O=C(COc1ccc(F)cc1Cl)Nc1ccccc1C(=O)N1CCCCC1	-11.8
CCOC(=O)c1ccc2ncc(C(=O)OCC)c(NCCN(C)C)c2c1	-69.5
